Test results published in patent publication US11911477B2, “Use of fructose in preparing drug for treating ischemic injury” (Beihang University, priority 2021, dated 2024).

Assays:
[1] = test system: DIV7 neurons; assay: CellTiter-Glo Luminescent cell viability of DIV7 neurons; assay type: cell-based; settings: 0, 1, 2, 4, 6, 8 and 16 mM, each compared with the 0 mM group, FIG. 12
Description: Effects of different concentrations of fructose on the viability of DIV7 neurons were studied using a CellTiter-Glo® Luminescent cell viability test kit, and an added concentration of the fructose was explored in the cell system.

[2] = test system: OGD-injured neurons; assay: Survival rate of OGD-treated neurons by MAP2 and DAPI immunofluorescence staining; settings: OGD 1.5 h, 2 mM, after 24 h, FIG. 14

## O=C(CO)[C@@H](O)[C@H](O)[C@H](O)CO [fructose]
[1]
  viability of DIV7 neurons: improvement effect on neuron viability significantly better than that of the fructose-1,6-bisphosphate and the glycerol fructose
[2]
  survival rate of neurons after OGD: has a significantly better effect than the fructose-1,6-bisphosphate
